# According to the supplement of paper PMC8728848:
# Some of the results follow.
# Key:
# Experiment in all cases: glycan array binding signal (z-score within array); higher = stronger binding
# Details in all cases: glycan notation: IUPAC condensed, linker removed
# [1] = molecular target: Fuc(a1-2)[Gal(a1-3)]Gal(b1-4)GlcNAc(b1-2)Man(a1-3)[Fuc(a1-2)[Gal(a1-3)]Gal(b1-4)GlcNAc(b1-2)Man(a1-6)]Man(b1-4)GlcNAc(b1-4)GlcNAc
# Outline: (§1)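 The Consortium for Functional Glycomics database supplied 3228 glycan arrays, of which those lacking an available protein sequence were dropped. The binding signal, a within-array Z-score, was averaged across arrays of the same protein sequence and across linkers. Negative scores can be read as non-binding.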
# [2] = molecular target: Fuc(a1-2)[Gal(a1-3)]Gal(b1-4)GlcNAc(b1-2)Man(a1-3)[Fuc(a1-2)[Gal(a1-3)]Gal(b1-4)GlcNAc(b1-2)Man(a1-6)]Man(b1-4)GlcNAc(b1-4)[Fuc(a1-6)]GlcNAc
# Outline: as §1
# [3] = molecular target: Fuc(a1-2)[Gal(a1-3)]Gal(b1-4)GlcNAc(b1-3)GalNAc
# Outline: as §1
# [4] = molecular target: Fuc(a1-2)[Gal(a1-3)]Gal(b1-4)GlcNAc(b1-3)[Fuc(a1-2)[Gal(a1-3)]Gal(b1-4)GlcNAc(b1-6)]GalNAc
# Outline: as §1
# [5] = molecular target: Fuc(a1-2)[Gal(a1-3)]Gal(b1-4)GlcNAc(b1-6)GalNAc
# Outline: as §1
# [6] = molecular target: Fuc(a1-2)[Gal(a1-3)]Gal(b1-4)[Fuc(a1-3)]Glc
# Outline: as §1
# [7] = molecular target: Fuc(a1-2)[Gal(a1-3)]Gal(b1-4)[Fuc(a1-3)]GlcNAc
# Outline: as §1
# [8] = molecular target: Fuc(a1-2)[Gal(a1-3)]Gal(b1-4)[Fuc(a1-3)]GlcNAc(b1-3)GalNAc
# Outline: as §1
# [9] = molecular target: Fuc(a1-2)[Gal(a1-4)]Gal(b1-4)GlcNAc
# Outline: as §1
# [10] = molecular target: Fuc(a1-2)[GalNAc(a1-3)]Gal
# Outline: as §1
# [11] = molecular target: Fuc(a1-2)[GalNAc(a1-3)]Gal(b1-3)GalNAc(a1-3)[Fuc(a1-2)]Gal(b1-4)GlcNAc
# Outline: as §1
# [12] = molecular target: Fuc(a1-2)[GalNAc(a1-3)]Gal(b1-3)GalNAc(b1-3)Gal(a1-4)Gal(b1-4)Glc
# Outline: as §1
# [13] = molecular target: Fuc(a1-2)[GalNAc(a1-3)]Gal(b1-3)GlcNAc
# Outline: as §1
# [14] = molecular target: Fuc(a1-2)[GalNAc(a1-3)]Gal(b1-3)GlcNAc(b1-2)Man(a1-3)[Fuc(a1-2)[GalNAc(a1-3)]Gal(b1-3)GlcNAc(b1-2)Man(a1-6)]Man(b1-4)GlcNAc(b1-4)GlcNAc
# Outline: as §1
# [15] = molecular target: Fuc(a1-2)[GalNAc(a1-3)]Gal(b1-3)GlcNAc(b1-2)Man(a1-3)[Fuc(a1-2)[GalNAc(a1-3)]Gal(b1-3)GlcNAc(b1-2)Man(a1-6)]Man(b1-4)GlcNAc(b1-4)[Fuc(a1-6)]GlcNAc
# Outline: as §1
# [16] = molecular target: Fuc(a1-2)[GalNAc(a1-3)]Gal(b1-3)GlcNAc(b1-3)GalNAc
# Outline: as §1
# [17] = molecular target: Fuc(a1-2)[GalNAc(a1-3)]Gal(b1-3)GlcNAc(b1-6)GalNAc
# Outline: as §1
# [18] = molecular target: Fuc(a1-2)[GalNAc(a1-3)]Gal(b1-4)Glc
# Outline: as §1
# [19] = molecular target: Fuc(a1-2)[GalNAc(a1-3)]Gal(b1-4)GlcNAc
# Outline: as §1
# [20] = molecular target: Fuc(a1-2)[GalNAc(a1-3)]Gal(b1-4)GlcNAc(b1-2)Man
# Outline: as §1
# [21] = molecular target: Fuc(a1-2)[GalNAc(a1-3)]Gal(b1-4)GlcNAc(b1-2)Man(a1-3)[Fuc(a1-2)[GalNAc(a1-3)]Gal(b1-4)GlcNAc(b1-2)Man(a1-6)]Man(b1-4)GlcNAc(b1-4)GlcNAc
# Outline: as §1
# [22] = molecular target: Fuc(a1-2)[GalNAc(a1-3)]Gal(b1-4)GlcNAc(b1-2)Man(a1-3)[Fuc(a1-2)[GalNAc(a1-3)]Gal(b1-4)GlcNAc(b1-2)Man(a1-6)]Man(b1-4)GlcNAc(b1-4)[Fuc(a1-6)]GlcNAc
# Outline: as §1
# [23] = molecular target: Fuc(a1-2)[GalNAc(a1-3)]Gal(b1-4)GlcNAc(b1-3)Gal(b1-4)GlcNAc
# Outline: as §1
# [24] = molecular target: Fuc(a1-2)[GalNAc(a1-3)]Gal(b1-4)GlcNAc(b1-3)Gal(b1-4)GlcNAc(b1-3)Gal(b1-4)GlcNAc
# Outline: as §1
# [25] = molecular target: Fuc(a1-2)[GalNAc(a1-3)]Gal(b1-4)GlcNAc(b1-3)GalNAc
# Outline: as §1
# [26] = molecular target: Fuc(a1-2)[GalNAc(a1-3)]Gal(b1-4)GlcNAc(b1-3)[Fuc(a1-2)[GalNAc(a1-3)]Gal(b1-4)GlcNAc(b1-6)]GalNAc
# Outline: as §1
# [27] = molecular target: Fuc(a1-2)[GalNAc(a1-3)]Gal(b1-4)GlcNAc(b1-6)GalNAc
# Outline: as §1
# [28] = molecular target: Fuc(a1-2)[GalNAc(a1-3)]Gal(b1-4)[Fuc(a1-3)]GlcNAc
# Outline: as §1
# [29] = molecular target: Fuc(a1-2)[GalNAc(a1-3)]Gal(b1-4)[Fuc(a1-3)]GlcNAc(b1-3)GalNAc
# Outline: as §1
# [30] = molecular target: Fuc(a1-2)[GalNAc(a1-4)]Gal(b1-4)GlcNAc
# Outline: as §1
# [31] = molecular target: Fuc(a1-2)[GalNAc(b1-3)]Gal
# Outline: as §1
# Fuc(a1-3)GlcNAc = molecular target: Fuc(a1-3)GlcNAc
# Outline: as §1
# [32] = molecular target: Fuc(a1-3)[Gal(b1-4)]Glc6S
# Outline: as §1
# [33] = molecular target: Fuc(a1-3)[Gal(b1-4)]GlcNAc
# Outline: as §1
# [34] = molecular target: Fuc(a1-3)[Gal(b1-4)]GlcNAc(b1-2)Man
# Outline: as §1
# [35] = molecular target: Fuc(a1-3)[Gal(b1-4)]GlcNAc(b1-2)Man(a1-3)[Fuc(a1-3)[Gal(b1-4)]GlcNAc(b1-2)Man(a1-6)]Man(b1-4)GlcNAc(b1-4)GlcNAc
# Outline: as §1
# [36] = molecular target: Fuc(a1-3)[Gal(b1-4)]GlcNAc(b1-2)Man(a1-3)[Fuc(a1-3)[Gal(b1-4)]GlcNAc(b1-2)Man(a1-6)]Man(b1-4)GlcNAc(b1-4)[Fuc(a1-6)]GlcNAc
# Outline: as §1
# [37] = molecular target: Fuc(a1-3)[Gal(b1-4)]GlcNAc(b1-3)Gal(b1-3)[Fuc(a1-4)]GlcNAc
# Outline: as §1
# [38] = molecular target: Fuc(a1-3)[Gal(b1-4)]GlcNAc(b1-3)Gal(b1-4)[Fuc(a1-3)]GlcNAc
# Outline: as §1
# [39] = molecular target: Fuc(a1-3)[Gal(b1-4)]GlcNAc(b1-3)Gal(b1-4)[Fuc(a1-3)]GlcNAc(b1-3)Gal(b1-4)[Fuc(a1-3)]GlcNAc
# Outline: as §1
# [40] = molecular target: Fuc(a1-3)[Gal(b1-4)]GlcNAc(b1-3)GalNAc
# Outline: as §1
# [41] = molecular target: Fuc(a1-3)[Gal(b1-4)]GlcNAc(b1-6)GalNAc
# Outline: as §1
# [42] = molecular target: Fuc(a1-3)[Gal(b1-4)]GlcNAc(b1-6)[Gal(b1-3)GlcNAc(b1-3)]Gal(b1-4)Glc
# Outline: as §1
# [43] = molecular target: Fuc(a1-3)[Gal(b1-4)]GlcNAc6S
# Outline: as §1
# [44] = molecular target: Fuc(a1-3)[Gal3S(b1-4)]Glc
# Outline: as §1
# [45] = molecular target: Fuc(a1-3)[Gal3S(b1-4)]GlcNAc
# Outline: as §1
# [46] = molecular target: Fuc(a1-3)[Gal3S(b1-4)]GlcNAc6S
# Outline: as §1
# [47] = molecular target: Fuc(a1-3)[GalNAc(b1-4)]GlcNAc
# Outline: as §1
# [48] = molecular target: Fuc(a1-3)[GalNAc(b1-4)]GlcNAc6S
# Outline: as §1
# Fuc(a1-4)GlcNAc = molecular target: Fuc(a1-4)GlcNAc
# Outline: as §1
# Fuc(b1-3)GlcNAc = molecular target: Fuc(b1-3)GlcNAc
# Outline: as §1
# Gal(a1-2)Gal = molecular target: Gal(a1-2)Gal
# Outline: as §1
# Gal(a1-3)Gal = molecular target: Gal(a1-3)Gal
# Outline: as §1
# Gal(a1-3)Gal(b1-3)GlcNAc = molecular target: Gal(a1-3)Gal(b1-3)GlcNAc
# Outline: as §1
# [49] = molecular target: Gal(a1-3)Gal(b1-3)GlcNAc(b1-2)Man
# Outline: as §1
# [50] = molecular target: Gal(a1-3)Gal(b1-3)GlcNAc(b1-2)Man(a1-3)[Gal(a1-3)Gal(b1-3)GlcNAc(b1-2)Man(a1-6)]Man(b1-4)GlcNAc(b1-4)GlcNAc
# Outline: as §1
# [51] = molecular target: Gal(a1-3)Gal(b1-3)GlcNAc(b1-3)GalNAc
# Outline: as §1
# [52] = molecular target: Gal(a1-3)Gal(b1-3)GlcNAc(b1-6)GalNAc
# Outline: as §1
# [53] = molecular target: Gal(a1-3)Gal(b1-3)[Fuc(a1-4)]GlcNAc(b1-2)Man(a1-3)[Gal(a1-3)Gal(b1-3)[Fuc(a1-4)]GlcNAc(b1-2)Man(a1-6)]Man(b1-4)GlcNAc(b1-4)GlcNAc
# Outline: as §1
# Gal(a1-3)Gal(b1-4)Glc = molecular target: Gal(a1-3)Gal(b1-4)Glc
# Outline: as §1
binder,measurement,setting,value
"Apa (Mycobacterium tuberculosis), Rv1860 (protein) MHQVDPNLTRRKGRLAALAIAAMASASLVTVAVPATANADPEPAPPVPTTAASPPSTAAAPPAPATPVAPPPPAAANTPNAQPGDPNAAPPPADPNAPPPPVIAPNAPQPVRIDNPVGGFSFALPAGWVESDAAHFDYGSALLSKTTGDPPFPGQPPPVANDTRIVLGRLDQKLYASAEATDSKAAARLGSDMGEFYMPYPGTRINQETVSLDANGVSGSASYYEVKFSDPSKPNGQIWTGVIGSPAANAPDAGPPQRWFVVWLGTANNPVDKGAAKALAESIRPLVAPPPAPAPAPAEPAPAPAPAGEVAPTPTTPTPQRTLPA",glycan array binding signal (z-score),[1],-0.306
same,glycan array binding signal (z-score),[2],-0.067
same,glycan array binding signal (z-score),[3],-0.203
same,glycan array binding signal (z-score),[4],0.651
same,glycan array binding signal (z-score),[5],1.6
same,glycan array binding signal (z-score),[6],-0.318
same,glycan array binding signal (z-score),[7],0.273
same,glycan array binding signal (z-score),[8],-0.007
same,glycan array binding signal (z-score),[9],0.43
same,glycan array binding signal (z-score),[10],-0.191
same,glycan array binding signal (z-score),[11],14.3
same,glycan array binding signal (z-score),[12],5.64
same,glycan array binding signal (z-score),[13],-0.103
same,glycan array binding signal (z-score),[14],-0.284
same,glycan array binding signal (z-score),[15],1.6
same,glycan array binding signal (z-score),[16],0.338
same,glycan array binding signal (z-score),[17],-0.091
same,glycan array binding signal (z-score),[18],-0.137
same,glycan array binding signal (z-score),[19],-0.327
same,glycan array binding signal (z-score),[20],0.136
same,glycan array binding signal (z-score),[21],0.378
same,glycan array binding signal (z-score),[22],0.127
same,glycan array binding signal (z-score),[23],-0.657
same,glycan array binding signal (z-score),[24],-0.076
same,glycan array binding signal (z-score),[25],0.239
same,glycan array binding signal (z-score),[26],0.394
same,glycan array binding signal (z-score),[27],-0.315
same,glycan array binding signal (z-score),[28],0.05
same,glycan array binding signal (z-score),[29],0.258
same,glycan array binding signal (z-score),[30],-0.306
same,glycan array binding signal (z-score),[31],-0.481
same,glycan array binding signal (z-score),Fuc(a1-3)GlcNAc,-0.29
same,glycan array binding signal (z-score),[32],0.898
same,glycan array binding signal (z-score),[33],-0.056
same,glycan array binding signal (z-score),[34],0.96
same,glycan array binding signal (z-score),[35],-0.521
same,glycan array binding signal (z-score),[36],-0.233
same,glycan array binding signal (z-score),[37],-0.154
same,glycan array binding signal (z-score),[38],0.272
same,glycan array binding signal (z-score),[39],-0.421
same,glycan array binding signal (z-score),[40],0.093
same,glycan array binding signal (z-score),[41],0.876
same,glycan array binding signal (z-score),[42],-0.148
same,glycan array binding signal (z-score),[43],1.94
same,glycan array binding signal (z-score),[44],0.062
same,glycan array binding signal (z-score),[45],-0.215
same,glycan array binding signal (z-score),[46],-0.076
same,glycan array binding signal (z-score),[47],0.301
same,glycan array binding signal (z-score),[48],-0.267
same,glycan array binding signal (z-score),Fuc(a1-4)GlcNAc,-0.036
same,glycan array binding signal (z-score),Fuc(b1-3)GlcNAc,-0.143
same,glycan array binding signal (z-score),Gal(a1-2)Gal,0.436
same,glycan array binding signal (z-score),Gal(a1-3)Gal,-0.259
same,glycan array binding signal (z-score),Gal(a1-3)Gal(b1-3)GlcNAc,-0.245
same,glycan array binding signal (z-score),[49],0.743
same,glycan array binding signal (z-score),[50],0.147
same,glycan array binding signal (z-score),[51],-0.04
same,glycan array binding signal (z-score),[52],-0.171
same,glycan array binding signal (z-score),[53],0.382
same,glycan array binding signal (z-score),Gal(a1-3)Gal(b1-4)Glc,-0.055
